Among all 310,000 compounds or so, about 14,000 (4.5%) showed an effect of 50% or more. Effects have a minus sign here. Some of the results follow.
Biological target: human ether-à-go-go-related gene (hERG) potassium channel (human, UniProt Q12809)
Experiment: primary screen, population patch clamp on CHO cells stably expressing hERG
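Also: peak tail current of the secondary pulse compared with the same well before compound.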

Sequence of human ether-à-go-go-related gene (hERG) potassium channel (Q12809 whole entry, looked up): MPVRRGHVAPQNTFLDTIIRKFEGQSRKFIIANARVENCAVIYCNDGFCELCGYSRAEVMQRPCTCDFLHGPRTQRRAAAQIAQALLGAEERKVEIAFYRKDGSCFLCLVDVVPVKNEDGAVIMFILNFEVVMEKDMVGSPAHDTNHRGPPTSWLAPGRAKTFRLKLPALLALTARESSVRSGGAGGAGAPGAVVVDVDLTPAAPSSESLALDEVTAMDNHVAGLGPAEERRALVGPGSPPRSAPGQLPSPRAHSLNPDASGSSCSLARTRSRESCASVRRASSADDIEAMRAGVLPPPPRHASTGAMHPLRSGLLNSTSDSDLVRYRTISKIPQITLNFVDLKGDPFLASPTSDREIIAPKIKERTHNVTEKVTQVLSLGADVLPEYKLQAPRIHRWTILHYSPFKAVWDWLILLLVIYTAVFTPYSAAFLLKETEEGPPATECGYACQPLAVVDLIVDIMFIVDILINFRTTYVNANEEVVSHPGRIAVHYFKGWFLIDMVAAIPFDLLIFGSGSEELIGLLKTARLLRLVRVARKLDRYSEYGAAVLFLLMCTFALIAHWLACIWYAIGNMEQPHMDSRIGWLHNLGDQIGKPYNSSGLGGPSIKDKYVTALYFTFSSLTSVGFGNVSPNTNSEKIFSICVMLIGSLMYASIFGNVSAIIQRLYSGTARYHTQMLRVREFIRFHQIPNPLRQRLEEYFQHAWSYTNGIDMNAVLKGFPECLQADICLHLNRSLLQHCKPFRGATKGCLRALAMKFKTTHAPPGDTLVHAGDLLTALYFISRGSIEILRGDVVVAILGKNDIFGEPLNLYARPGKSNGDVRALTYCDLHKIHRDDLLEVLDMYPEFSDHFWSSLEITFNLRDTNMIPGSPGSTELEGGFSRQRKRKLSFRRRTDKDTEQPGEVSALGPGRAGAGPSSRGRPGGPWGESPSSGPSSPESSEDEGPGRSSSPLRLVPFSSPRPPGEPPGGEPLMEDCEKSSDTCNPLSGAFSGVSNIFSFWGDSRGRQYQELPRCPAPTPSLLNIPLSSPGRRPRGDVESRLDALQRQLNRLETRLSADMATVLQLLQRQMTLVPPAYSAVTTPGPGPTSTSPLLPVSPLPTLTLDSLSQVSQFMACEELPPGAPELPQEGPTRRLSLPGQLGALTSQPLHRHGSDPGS

SMILES | hERG current change (%, negative = inhibition) at 10uM [%]
COc1ccccc1C(=O)NCCC(=O)Nc1ccc(S(=O)(=O)N2CCCC(C)C2)cc1 (stereo not drawn) | -1.23
CC(C)c1ccc(NC(=O)CCNC(=O)Cn2ccc3ccccc3c2=O)cc1 | -13.3
O=C(c1ccccc1)c1nc2ccccc2[nH]c1=O | -9.7
COc1ccc([C@H]2/C=C\CN(C(=O)c3ccc(C)cc3)[C@@H](C)C(=O)N2Cc2ccc(F)cc2)cc1 | -48.4
CC(NC(=O)COC(=O)c1cc([N+](=O)[O-])ccc1N1CCOCC1)c1ccc(F)cc1 (stereo not drawn) | -56.8
Cc1cc(O)cc(O)c1C(=O)Cc1ccccc1 | -11.7
OCC[n+]1c2ccccc2nc2ccc(N3CCOCC3)cc21.[O-][Cl+3]([O-])([O-])[O-] | 3.86
O=C(CN1CCN(C(=O)c2ccco2)CC1)Nc1ccc2c(c1)OCCO2 | -6.63
Cc1noc2ncnc(N3CCCCC3)c12 | 9.01
O=C(NCCC(=O)N1CCN(S(=O)(=O)c2ccccc2Cl)CC1)Nc1ccccc1 | -11.8
CCOC(=O)c1sc2nc(CSc3ccccc3Cl)[nH]c(=O)c2c1C | 10.7
CCn1cc(CNC(=O)c2ccc3nc(Cc4ccc(OC)cc4)oc3c2)cn1 | 6.8
Nc1c(C(=O)N2CCOCC2)sc2nc(N3CCOCC3)c3c(c12)CCCC3 | 6.33
CC1(C)C2CCC(C2)C1(C)NC(=O)CNCC1CCCCC1.Cl (stereo not drawn) | 10.7
Cc1ccc(C(=O)NCCC(=O)Nc2ccccc2C)cc1 | 19.5
Cc1cccc(OCc2nc3ccccc3n2C)c1.Cl | 4.26
O=C(OCc1nnc(-c2ccccc2)o1)c1cn(-c2ccccc2)nc1-c1ccccc1 | -8.59
CC[n+]1c(/C=C2/C=C(C)CC(C)(C)C2)sc2ccc(OC)cc21.Cc1ccc(S(=O)(=O)[O-])cc1 | -68.7
CCOc1cc(Br)c(C=O)cc1OCC | 22.1
CCn1ncc(Br)c1C(=O)Nc1ccc(C(=O)OC(C)C)cc1 | -16.4
Cc1cc(=O)[nH]c(-n2nc(C)c(Oc3ccccc3O)c2C)n1 | -1.93
COc1ccc(NC2=CC(=O)CC(c3ccccc3)C2)cc1 (stereo not drawn) | 0.869
Cc1ccccc1-n1c(-c2ccc(=O)[nH]n2)n[nH]c1=S | 24.5
CCOC(=O)NN1C(=O)c2ccccc2NC12CCCC2 | -6.13

Reference: publication PMC4336329 (PLoS ONE, 2015)
